Source: the supplement of paper PMC12355420
Where a name gives a salt, the structure may show the parent alone. The list shows a part of the results. Rule as the data show it: active = 0.5 or less and inactive = the rest. Repeats are few or missing, and single values can be far off.

What was measured:
Conditions in all cases: 50 µM; 24 h
[1] = test system: HeLa VPS33A reporter cells; assay: relative cell viability (CellMask signal) vs DMSO (fraction of DMSO); higher = less cytotoxic;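 also: primary screen of an FDA-approved drug library in HeLa reporter cells in 96-well format, CellMask signal normalized to DMSO-treated wells set as 1, under 0.5 deemed highly cytotoxic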
[2] = test system: HeLa VPS33A R498W KI + HA-SDC1-FLAG; assay: relative GAG core protein HA-SDC1 amount per cell number vs DMSO (fraction of DMSO); higher = more SDC1 (GAG core protein);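 also: HA-SDC1 level read out by In-Cell Western staining with an anti-HA antibody against the N-terminal tag, screening FDA-approved library drugs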
[3] = test system: HeLa VPS33A KO + NLuc-VPS33A R498W; assay: relative mutant VPS33A R498W amount (NanoLuc luminescence) vs DMSO (fraction of DMSO); HeLa model of a glycosaminoglycan (GAG) storage disease; KI is knock-in and KO knock-out; SDC1 is syndecan 1; higher = higher mutant VPS33A level;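 also: screen of an FDA-approved drug library, NanoLuc luminescence read after lysing the treated cells, taken as a measure of mutant VPS33A protein stability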

SMILES | relative cell viability [1] | relative GAG core protein HA-SDC1 amount per cell number [2] | relative mutant VPS33A R498W amount [3]
C[C@]12CC[C@@H]3c4ccc(O)cc4CC[C@H]3[C@@H]1C[C@@H](O)[C@@H]2O [Estriol] | 1.04 | inactive: 0.789 | 0.811
CC(c1cc2ccccc2s1)N(O)C(N)=O (centres undefined) [Zileuton] | 1.01 | inactive: 1.11 | 1.15
CC#CCn1c(N2CCC[C@@H](N)C2)nc2c1c(=O)n(Cc1nc(C)c3ccccc3n1)c(=O)n2C [Linagliptin (BI-1356)] | 0.91 | inactive: 0.926 | 0.774
OCc1ccc(O[C@@H]2O[C@H](CO)[C@@H](O)[C@H](O)[C@H]2O)cc1 [Gastrodin] | 1.02 | inactive: 1.04 | 1.46
CO/N=C(\C(=O)N[C@@H]1C(=O)N2C(C(=O)O)=C(Cn3ccc(=N)n3CCO)CS[C@H]12)c1csc(N)n1 [Cefoselis Sulfate] | 0.967 | inactive: 0.912 | 1.6
CCNC(=O)CCC/C=C\C[C@@H]1[C@@H](/C=C/[C@@H](O)CCc2ccccc2)[C@H](O)C[C@@H]1O [Bimatoprost] | 0.933 | inactive: 0.851 | 1.41
COCCCN1CCC(NC(=O)c2cc(Cl)c(N)c3c2OCC3)CC1 [Prucalopride] | 1.01 | inactive: 0.946 | 1.38
COC1=C(OC)C(=O)C(C/C=C(\C)CC/C=C(\C)CC/C=C(\C)CC/C=C(\C)CC/C=C(\C)CC/C=C(\C)CC/C=C(\C)CC/C=C(\C)CC/C=C(\C)CCC=C(C)C)=C(C)C1=O [Coenzyme Q10] | 1.1 | inactive: 1 | 1.54
CN(c1nccc(=O)[nH]1)C1CCN(c2nc3ccccc3n2Cc2ccc(F)cc2)CC1 [Mizolastine] | 1.21 | inactive: 0.501 | 0.287
Cc1oc(=O)oc1CN1CCN(c2cc3c(cc2F)c(=O)c(C(=O)O)c2n3C(C)S2)CC1 (centres undefined) [Prulifloxacin (Pruvel)] | 0.957 | inactive: 0.692 | 0.854
O=C(O)c1cc(/N=N/c2ccc(S(=O)(=O)Nc3ccccn3)cc2)ccc1O [Sulfasalazine] | 0.985 | inactive: 1.21 | 1.46
CC1COc2c(N3CCN(C)CC3)c(F)cc3c(=O)c(C(=O)O)cn1c23 (centres undefined) [Ofloxacin] | 0.977 | inactive: 1.28 | 1.26
CC[C@H]1OC(=O)[C@H](C)[C@@H](O[C@H]2C[C@@](C)(OC)[C@@H](O)[C@H](C)O2)[C@H](C)[C@@H](O[C@@H]2O[C@H](C)C[C@H](N(C)C)[C@H]2O)[C@](C)(O)C[C@@H](C)C(=O)[C@H](C)[C@@H](O)[C@]1(C)O [Erythromycin] | 1.04 | inactive: 0.677 | 1.13
N=C1CCCN1Cc1[nH]c(=O)[nH]c(=O)c1Cl [Tipiracil hydrochloride] | 1.21 | inactive: 1.78 | 1.16
C[C@]12C=CC(=O)C=C1CC[C@H]1[C@@H]3C[C@@H](O)[C@](O)(C(=O)CO)[C@@]3(C)C[C@H](O)[C@@]12F [Triamcinolone] | 1.07 | inactive: 1.01 | 1.08
CCOc1nc2cccc(C(=O)O)c2n1Cc1ccc(-c2ccccc2-c2noc(=O)[nH]2)cc1 [Azilsartan] | 1.01 | inactive: 0.913 | 1.35
CCCCCCCCCCCCCCCC(=O)OC [Palmitic Acid methyl ester] | 0.974 | inactive: 0.808 | 1.41
CC1(C)O[C@@H]2C[C@H]3[C@@H]4CCC5=CC(=O)C=C[C@]5(C)[C@@]4(F)[C@@H](O)C[C@]3(C)[C@]2(C(=O)CO)O1 [Triamcinolone Acetonide] | 1.57 | inactive: 1.46 | 0.488
O=C(O)c1ccccc1C(=O)O [Phthalic acid] | 0.992 | inactive: 0.937 | 1.29
NC(=O)[C@@H](CCC(F)(F)F)N(Cc1ccc(-c2ncon2)cc1F)S(=O)(=O)c1ccc(Cl)cc1 | 1.25 | inactive: 0.883 | 1.18
CCCc1nc2c(C)cc(-c3nc4ccccc4n3C)cc2n1Cc1ccc(-c2ccccc2C(=O)O)cc1 [Telmisattan] | 1.5 | active: 0.491 | 0.472
O=Cc1ccc(OC2OC(CO)C(O)C(O)C2O)cc1 (centres undefined) [Helicid] | 0.97 | inactive: 0.67 | 1.25
COc1ccc(Cl)cc1C(=O)NCCc1ccc(S(=O)(=O)NC(=O)NC2CCCCC2)cc1 [Glibenclamide] | 1.2 | inactive: 0.621 | 0.549
Nc1ncnc2c1ncn2[C@@H]1O[C@H](COP(=O)(O)OP(=O)(O)O)[C@@H](O)[C@H]1O [Adenosine-5'-diphosphate] | 1.26 | inactive: 0.801 | 2.18
C[C@H](CCC(=O)O)[C@H]1CC[C@H]2[C@@H]3[C@@H](O)C[C@@H]4C[C@H](O)CC[C@]4(C)[C@H]3CC[C@]12C [Ursodiol] | 0.997 | inactive: 0.852 | 1.88
COc1cc(Nc2ncc(F)c(Nc3ccc4c(n3)N(COP(=O)(O)O)C(=O)C(C)(C)O4)n2)cc(OC)c1OC [Fostamatinib (R788)] | 1.07 | active: 0.398 | 0.586
CCCCCCCCCCCCCCCCCC(=O)O [Stearic Acid] | 0.987 | inactive: 0.87 | 1.96

SMILES | relative cell viability [1] | relative GAG core protein HA-SDC1 amount per cell number [2] | relative mutant VPS33A R498W amount [3]
O=C(Nc1c(Cl)cncc1Cl)c1ccc(OC(F)F)c(OCC2CC2)c1 [Roflumilast] | 1.02 | inactive: 1.38 | 1.21
Cc1cccc(N(C)C(=S)Oc2ccc3ccccc3c2)c1 [Tolnaftate] | 1.16 | inactive: 0.746 | 1.09
O=c1oc2c(O)c(O)cc3c(=O)oc4c(O)c(O)cc1c4c23 [Ellagic acid] | 1.23 | inactive: 1.3 | 0.815
CCCCc1ncc(/C=C(\Cc2cccs2)C(=O)O)n1Cc1ccc(C(=O)O)cc1 [Eprosartan Mesylate] | 0.899 | inactive: 1.08 | 1.28
CCOC(=O)c1ncn2c1CN(C)C(=O)c1cc(F)ccc1-2 [Flumazenil] | 1.21 | inactive: 1.11 | 1.07
COc1ccc(C(=O)c2ccccc2)c(O)c1 [Oxybenzone] | 1.06 | inactive: 0.718 | 0.862
CNC(=O)[C@@H](NC(=O)[C@H](CC(C)C)[C@H](O)C(=O)NO)C(C)(C)C [Marimastat] | 1.01 | inactive: 0.549 | 0.459
C[C@H]1c2cccc(O)c2C(O)=C2C(=O)[C@]3(O)C(O)=C(C(N)=O)C(=O)[C@@H](N(C)C)[C@@H]3[C@@H](O)[C@@H]21 [Doxycycline hyclate] | 1.08 | inactive: 0.52 | 0.358
CO/N=C(\C(=O)N[C@@H]1C(=O)N2C(C(=O)[O-])=C(C[N+]3(C)CCCC3)CS[C@H]12)c1csc(N)n1 [Cefepime Dihydrochloride Monohydrate] | 0.893 | inactive: 0.904 | 1.61
CC1=C(/C=C/C(C)=C/C=C/C(C)=C/CO)C(C)(C)CCC1 [Vitamin A] | 1.01 | active: 0.277 | 2.37
Nc1ncnc2c1ncn2[C@@H]1O[C@H](CO)[C@@H](O)[C@@H]1O [Vidarabine] | 0.983 | inactive: 0.791 | 1.61
COc1nc(C)nc(Cl)c1NC1=NCCN1 [Moxonidine] | 0.968 | inactive: 1.29 | 1.2
O=C1Cc2cc(CCN3CCN(c4nsc5ccccc45)CC3)c(Cl)cc2N1 [Ziprasidone hydrochloride monohydrate] | 1.08 | inactive: 0.961 | 1.11
C=C1/C(=C\C=C2/CCC[C@]3(C)[C@@H]([C@H](C)CCCC(C)(C)O)CC[C@@H]23)C[C@@H](O)C[C@@H]1O [Calcitriol] | 0.957 | inactive: 0.809 | 1.5
OC1OC[C@H](O)[C@H](O)[C@H]1O (mixture of isomers) [L-Arabinose] | 1.09 | inactive: 0.84 | 1.36
CN(CCOc1ccc(CC2SC(=O)NC2=O)cc1)c1ccccn1 (centres undefined) [Rosiglitazone] | 1.29 | inactive: 1.12 | 0.476
OC[C@@H](O)[C@@H](O)[C@H](O)[C@@H](O)CO [Sorbitol] | 1.06 | inactive: 0.81 | 1.3
N=C(N)NCCCC[C@@H]1NC(=O)CCSSC[C@@H](C(N)=O)NC(=O)[C@@H]2CCCN2C(=O)[C@H](Cc2c[nH]c3ccccc23)NC(=O)[C@H](CC(=O)O)NC(=O)CNC1=O [Eptifibatide] | 1.05 | inactive: 0.847 | 1.26
NS(=O)(=O)c1cc2c(cc1Cl)NC(C(Cl)Cl)NS2(=O)=O (centres undefined) [Trichlormethiazide] | 0.949 | inactive: 0.845 | 1.54
NC[C@H](O)c1ccc(O)c(O)c1 [Noradrenaline bitartrate monohydrate] | 0.934 | inactive: 1.11 | 1.36
C[C@@H]1CC(=O)NN=C1c1ccc(NN=C(C#N)C#N)cc1 [Levosimendan] | 0.836 | active: 0.209 | 1.33
Cc1cc(C#N)cc(C)c1Oc1nc(Nc2ccc(C#N)cc2)nc(N)c1Br [Etravirine (TMC125)] | 1.12 | inactive: 0.911 | 1.43
CC(CNC(=O)c1cccnc1)NC(=O)c1cccnc1 (centres undefined) [Nicaraven] | 0.864 | inactive: 0.984 | 1.22
COC(=O)C1=CO[C@@H](O[C@@H]2O[C@H](CO)[C@@H](O)[C@H](O)[C@H]2O)[C@@H]2[C@@H](C)[C@@H](O)C[C@H]12 [Loganin] | 1.01 | inactive: 0.856 | 1.33
CN(C)CCc1c[nH]c2ccc(Cn3cncn3)cc12 [Rizatriptan Benzoate] | 1.12 | inactive: 0.945 | 0.799
CCC1(c2c[nH]cn2)Cc2ccccc2C1 [Atipamezole hydrochloride] | 1.18 | inactive: 0.601 | 0.615
